We go through 15 molecules from PMC4219380.

Chains of the proteins cited; added tags and fusions are not shown.
UniProt Q9SN12: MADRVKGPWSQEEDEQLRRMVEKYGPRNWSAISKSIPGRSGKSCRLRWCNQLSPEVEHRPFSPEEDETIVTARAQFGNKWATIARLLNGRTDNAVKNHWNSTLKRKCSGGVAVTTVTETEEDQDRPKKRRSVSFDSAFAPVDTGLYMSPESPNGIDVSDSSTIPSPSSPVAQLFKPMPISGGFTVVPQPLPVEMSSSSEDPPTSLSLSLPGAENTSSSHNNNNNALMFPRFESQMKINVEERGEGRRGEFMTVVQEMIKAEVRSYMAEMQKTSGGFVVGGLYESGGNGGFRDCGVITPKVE
UniProt Q9FDW1: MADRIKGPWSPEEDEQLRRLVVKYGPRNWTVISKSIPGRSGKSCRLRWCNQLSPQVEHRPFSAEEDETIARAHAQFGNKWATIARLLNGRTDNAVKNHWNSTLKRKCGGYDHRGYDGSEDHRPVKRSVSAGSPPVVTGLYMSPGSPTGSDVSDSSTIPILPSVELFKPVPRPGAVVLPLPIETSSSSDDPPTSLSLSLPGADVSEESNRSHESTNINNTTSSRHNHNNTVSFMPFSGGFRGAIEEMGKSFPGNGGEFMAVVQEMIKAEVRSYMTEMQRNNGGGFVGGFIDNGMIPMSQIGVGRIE

These are yes or no findings as the source states them, for the method shown. For some of these results: In cells and extracts the contact can be indirect. Some binding calls cover weakened binding; strength is not graded here. For some of these results: Tags and fused reporters may be left off the sequences shown.

To fix the notation:
B1: PYL9 fused to the GAL4 activation domain (pGADT7), Q84MC7 1-187 (receptor)
chain: MMDGVEGGTAMYGGLETVQYVRTHHQHLCRENQCTSALVKHIKAPLHLVWSLVRRFDQPQKYKPFVSRCTVIGDPEIGSLREVNVKSGLPATTSTERLELLDDEEHILGIKIIGGDHRLKNYSSILTVHPEIIEGRAGTMVIESFVVDVPQGNTKDETCYFVEALIRCNLKSLADVSERLASQDITQ
B2: PYL7 fused to the GAL4 activation domain (pGADT7), Q1ECF1 1-211 (receptor)
chain: MEMIGGDDTDTEMYGALVTAQSLRLRHLHHCRENQCTSVLVKYIQAPVHLVWSLVRRFDQPQKYKPFISRCTVNGDPEIGCLREVNVKSGLPATTSTERLEQLDDEEHILGINIIGGDHRLKNYSSILTVHPEMIDGRSGTMVMESFVVDVPQGNTKDDTCYFVESLIKCNLKSLACVSERLAAQDITNSIATFCNASNGYREKNHTETNL
B3: YFP1-174 aa -PYL8 (receptor, UniProt Q9FGM1 1-188)
chain: MEANGIENLTNPNQEREFIRRHHKHELVDNQCSSTLVKHINAPVHIVWSLVRRFDQPQKYKPFISRCVVKGNMEIGTVREVDVKSGLPATRSTERLELLDDNEHILSIRIVGGDHRLKNYSSIISLHPETIEGRIGTLVIESFVVDVPEGNTKDETCYFVEALIKCNLKSLADISERLAVQDTTESRV
B4: PYL11 fused to the GAL4 activation domain (pGADT7) (receptor, UniProt Q9FJ50 1-161)
chain: METSQKYHTCGSTLVQTIDAPLSLVWSILRRFDNPQAYKQFVKTCNLSSGDGGEGSVREVTVVSGLPAEFSRERLDELDDESHVMMISIIGGDHRLVNYRSKTMAFVAADTEEKTVVVESYVVDVPEGNSEEETTSFADTIVGFNLKSLAKLSERVAHLKL
B5: PYL3 fused to the GAL4 activation domain (pGADT7) (receptor, UniProt Q9SSM7 1-209)
chain: MNLAPIHDPSSSSTTTTSSSTPYGLTKDEFSTLDSIIRTHHTFPRSPNTCTSLIAHRVDAPAHAIWRFVRDFANPNKYKHFIKSCTIRVNGNGIKEIKVGTIREVSVVSGLPASTSVEILEVLDEEKRILSFRVLGGEHRLNNYRSVTSVNEFVVLEKDKKKRVYSVVLESYIVDIPQGNTEEDTRMFVDTVVKSNLQNLAVISTASPT
B6: PYL10 fused to the GAL4 activation domain (pGADT7) (receptor, UniProt Q8H1R0 1-183)
chain: MNGDETKKVESEYIKKHHRHELVESQCSSTLVKHIKAPLHLVWSIVRRFDEPQKYKPFISRCVVQGKKLEVGSVREVDLKSGLPATKSTEVLEILDDNEHILGIRIVGGDHRLKNYSSTISLHSETIDGKTGTLAIESFVVDVPEGNTKEETCFFVEALIQCNLNSLADVTERLQAESMEKKI
B7: PYL5 fused to the GAL4 activation domain (pGADT7) (receptor, UniProt Q9FLB1 1-203)
chain: MRSPVQLQHGSDATNGFHTLQPHDQTDGPIKRVCLTRGMHVPEHVAMHHTHDVGPDQCCSSVVQMIHAPPESVWALVRRFDNPKVYKNFIRQCRIVQGDGLHVGDLREVMVVSGLPAVSSTERLEILDEERHVISFSVVGGDHRLKNYRSVTTLHASDDEGTVVVESYIVDVPPGNTEEETLSFVDTIVRCNLQSLARSTNRQ
B8: PYL12 fused to the GAL4 activation domain (pGADT7) (receptor, UniProt Q9FJ49 1-159)
chain: MKTSQEQHVCGSTVVQTINAPLPLVWSILRRFDNPKTFKHFVKTCKLRSGDGGEGSVREVTVVSDLPASFSLERLDELDDESHVMVISIIGGDHRLVNYQSKTTVFVAAEEEKTVVVESYVVDVPEGNTEEETTLFADTIVGCNLRSLAKLSEKMMELT
B9: PYL2 fused to the GAL4 activation domain (pGADT7) (receptor, UniProt O80992 1-190)
chain: MSSSPAVKGLTDEEQKTLEPVIKTYHQFEPDPTTCTSLITQRIHAPASVVWPLIRRFDNPERYKHFVKRCRLISGDGDVGSVREVTVISGLPASTSTERLEFVDDDHRVLSFRVVGGEHRLKNYKSVTSVNEFLNQDSGKVYTVVLESYTVDIPEGNTEEDTKMFVDTVVKLNLQKLGVAATSAPMHDDE
B10: PYL6 fused to the GAL4 activation domain (pGADT7) (receptor, UniProt Q8S8E3 1-215)
chain: MPTSIQFQRSSTAAEAANATVRNYPHHHQKQVQKVSLTRGMADVPEHVELSHTHVVGPSQCFSVVVQDVEAPVSTVWSILSRFEHPQAYKHFVKSCHVVIGDGREVGSVREVRVVSGLPAAFSLERLEIMDDDRHVISFSVVGGDHRLMNYKSVTTVHESEEDSDGKKRTRVVESYVVDVPAGNDKEETCSFADTIVRCNLQSLAKLAENTSKFS
B11: PYL4 fused to the GAL4 activation domain (pGADT7) (receptor, UniProt O80920 1-207)
chain: MLAVHRPSSAVSDGDSVQIPMMIASFQKRFPSLSRDSTAARFHTHEVGPNQCCSAVIQEISAPISTVWSVVRRFDNPQAYKHFLKSCSVIGGDGDNVGSLRQVHVVSGLPAASSTERLDILDDERHVISFSVVGGDHRLSNYRSVTTLHPSPISGTVVVESYVVDVPPGNTKEETCDFVDVIVRCNLQSLAKIAENTAAESKKKMSL
B12: PYR1-LIKE8 (PYL8) fused to the GAL4 activation domain (PYL8-pGADT7) (receptor, UniProt Q9FGM1 1-188)
chain: B3 chain
B13: PYL7 fused to the GAL4 activation domain (pGADT7) (receptor, UniProt Q1ECF1 1-211)
chain: B2 chain
B14: INNER NO OUTER (INO) fused to the GAL4 activation domain (protein, UniProt Q9LDT3 1-231)
chain: MTKLPNMTTTLNHLFDLPGQICHVQCGFCTTILLVSVPFTSLSMVVTVRCGHCTSLLSVNLMKASFIPLHLLASLSHLDETGKEEVAATDGVEEEAWKVNQEKENSPTTLVSSSDNEDEDVSRVYQVVNKPPEKRQRAPSAYNCFIKEEIRRLKAQNPSMAHKEAFSLAAKNWAHFPPAHNKRAASDQCFCEEDNNAILPCNVFEDHEESNNGFRERKAQRHSIWGKSPFE
B15: PYL13 fused to the GAL4 activation domain (pGADT7) (receptor, UniProt Q9SN51 1-164)
chain: MESSKQKRCRSSVVETIEAPLPLVWSILRSFDKPQAYQRFVKSCTMRSGGGGGKGGEGKGSVRDVTLVSGFPADFSTERLEELDDESHVMVVSIIGGNHRLVNYKSKTKVVASPEDMAKKTVVVESYVVDVPEGTSEEDTIFFVDNIIRYNLTSLAKLTKKMMK

The target in one experiment is AtMYBR2/MYB77 full length fused to the GAL4 DNA-binding domain (pGBT9-MYBR2) (Arabidopsis thaliana), Q9SN12. As to the kind of experiment: two-hybrid; individual clones: pGBT9-MYBR1 or pGBT9-MYBR2 in yeast Y2H Gold mated 1 d at 30°C with pGADT7 fusions in yeast Y187; screened on DDO, DDO/X/A and QDO/X/A; also with phytohormones and inhibitors of auxin signaling (PCIB) and transport (TIBA, NPA), which did not affect the interactions. To be noted: remark: other sources report otherwise.
In the case of B1, the binding result was “no binding”.

A further experiment addresses AtMYBR1/AtMYB44 full length fused to the GAL4 DNA-binding domain (pGBT9-MYBR1) (Arabidopsis thaliana), Q9FDW1. The description is as above. To be noted: remark: other sources report otherwise.
Consider B1, for which the binding result is “no binding”. On the same count and under the same terms, under B2 stands “no binding”.

The next experiment addresses YFP175-end aa -MYBR2 (Arabidopsis thaliana) (UniProt Q9SN12). As to the kind of experiment: split reporter; BiFC in N. benthamiana leaf epidermal cells; eYFP reconstituted from YFP1-174 and YFP175-end fusions.
Details: not given
For the molecule B3, the binding entry is “binds”.

The next experiment deals with YFP175-end aa -MYBR1 (Arabidopsis thaliana) (UniProt Q9FDW1). The experiment is described as above.
Details: not given
With B3, the binding result was “binds”.

In a further experiment the target is AtMYBR2/MYB77 full length fused to the GAL4 DNA-binding domain (pGBT9-MYBR2) (Arabidopsis thaliana) (UniProt Q9SN12). Briefly: two-hybrid; individual clones: pGBT9-MYBR1 or pGBT9-MYBR2 in yeast Y2H Gold mated 1 d at 30°C with pGADT7 fusions in yeast Y187; screened on DDO, DDO/X/A and QDO/X/A; also with phytohormones and inhibitors of auxin signaling (PCIB) and transport (TIBA, NPA), which did not affect the interactions.
Details: not given
As to B4, the binding result is “no binding”. Regarding B5, the binding result is “no binding”. On the same count and under the same terms, under B6 stands “no binding”; under B7, “no binding”; under B8, “no binding”. Still for that read-out and setting: under B9 stands “no binding”; under B10, “no binding”. Still for that read-out and setting: under B11 stands “no binding”; under B12, “binds”. As to B13, the binding result was “no binding”. On the same count and under the same terms, under B14 stands “no binding”; under B15, “no binding”.

The target in a further experiment is AtMYBR1/AtMYB44 full length fused to the GAL4 DNA-binding domain (pGBT9-MYBR1) (Arabidopsis thaliana) (UniProt Q9FDW1). The description is as above.
Details: not given
Regarding B4, the binding result was “no binding”. On the same count and under the same terms, under B5 stands “no binding”; under B6, “no binding”; under B7, “no binding”. Turning to B8, the binding entry is on record as “no binding”. On to B9, for which the binding entry is reported as “no binding”.

For the molecule B10, the binding entry was “no binding”. The same measure, in the same setting: under B11 stands “no binding”; under B12, “binds”; under B14, “binds”.

Take B15: the binding result is recorded as “no binding”.
